The results in this text go back to article PMC4242493.

Some of the results follow. The list includes weakly bound sequences.

The target in the assay is MaxL homodimer (UniProt P61244). Nature of the assay: universal protein-binding microarray (PBM). The conditions noted are these: PBS-based mixture, 10 nM His-tagged protein dimer, 2% milk, 200 ng/uL BSA, 50 ng/uL salmon testes DNA, 0.02% TX-100; detection with Alexa 488 anti-His …; high values mean tight binding; most listed sequences are background and not binding sites; double strand, one strand shown.
Chain of UniProt P61244 (P61244 whole entry): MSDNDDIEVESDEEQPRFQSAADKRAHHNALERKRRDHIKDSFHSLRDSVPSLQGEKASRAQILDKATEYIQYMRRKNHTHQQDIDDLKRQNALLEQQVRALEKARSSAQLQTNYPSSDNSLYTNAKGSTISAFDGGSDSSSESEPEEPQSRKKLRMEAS
With AGTCCCTC, the binding signal (normalized occupancy) amounted to 0.0709.
To TTAAGAAA belongs 0.0708.
The value for ATCAGCTC was 0.0718.
Consider AAAGCTTG, for which the binding signal (normalized occupancy) was 0.0676.
For the sequence CTAGTTAC, the binding signal (normalized occupancy) turned out to be 0.073.
As to AATTCAGG, the binding signal (normalized occupancy) turned out to be 0.0744.
For GATCGATC, the binding signal (normalized occupancy) was found to be 0.0774.
CAAGGGTC: the binding signal (normalized occupancy) amounted to 0.0697.
Take AGTGAGGC: the binding signal (normalized occupancy) amounted to 0.0749.
Take GAATATAC: the binding signal (normalized occupancy) is 0.0866.
To AGCTTATG belongs 0.0729; to CCACCACG, 0.0914.
For the sequence GGCCGACC, the binding signal (normalized occupancy) worked out at 0.0667.
To CATAAGAC belongs 0.086.
The value for GGGTACAA was 0.0783; that for GCTTTAGA was 0.0698; that for CGATCAGA was 0.0735.
To AGCTTACG belongs 0.0724; to CCGGGAGC, 0.0624.
For CAGTCGGC, the binding signal (normalized occupancy) stood at 0.0653.
The value for AGCGCCAC was 0.0747; that for GCGTTGAC was 0.0751.
The value for CGATTATC was 0.075; that for AAGGTCGA was 0.0707; that for AAAATCAC was 0.0808.
Turning to CCATCTTA, the binding signal (normalized occupancy) worked out at 0.077.
For CACTGAAC, the binding signal (normalized occupancy) stood at 0.0713.
To CACGATAA belongs 0.0805.
On to AACCGCTC, for which the binding signal (normalized occupancy) was determined as 0.0709.
To GAAAAGGC belongs 0.0727.
To TACACGCA belongs 0.0926; to TCGTCTCA, 0.0755.
Consider CGAGGACG, for which the binding signal (normalized occupancy) was 0.069.
Turning to CGTCTGAG, the binding signal (normalized occupancy) amounted to 0.0733.
For the sequence GCATCACA, the binding signal (normalized occupancy) came to 0.0871.
To GCTTATGA belongs 0.0811; to GGCGCGGA, 0.0714.
GCGTGAAA: the binding signal (normalized occupancy) turned out to be 0.086.
In the case of TAGTATAA, the binding signal (normalized occupancy) was determined as 0.0804.
Consider CTATTGCC, for which the binding signal (normalized occupancy) stood at 0.0756.
The value for AGCAAGTA was 0.0754; that for GTACAGGA was 0.0727; that for ATTGGGTC was 0.0736.
The value for AAACTAAT was 0.075; that for AGAATGTG was 0.0881.
The value for AGGATACA was 0.0757; that for ACGTAAAT was 0.0785.
CGCCTACA: the binding signal (normalized occupancy) turned out to be 0.08.
Take AACTTAAA: the binding signal (normalized occupancy) is 0.0737.
To GGCGGGTA belongs 0.0717; to CGGGCCGC, 0.0695.
To ATGGGGGA belongs 0.0883; to GATTGGCC, 0.0718; to ATTCTCGG, 0.0684.
To AGGCTACT belongs 0.0703; to CGCAAGTA, 0.0753; to ATACGCGG, 0.0737.
In the case of ATACACTA, the binding signal (normalized occupancy) came out at 0.0782.
The value for AACGACGA was 0.066.
For the sequence GTGGGAAC, the binding signal (normalized occupancy) was determined as 0.0793.
To AATTCTGT belongs 0.0728.
The value for CGTGTCAG was 0.0836; that for CCGGCATA was 0.0739.
As for TGTTGCAA, the binding signal (normalized occupancy) is 0.0777.
To TAATCATA belongs 0.083; to TCTCGCAA, 0.0719; to CCGCTTCG, 0.0724.
Regarding CCCAGCTC, the binding signal (normalized occupancy) stood at 0.07.
To AAATCATC belongs 0.0766; to CTTTCAAC, 0.0766.
The value for GCTAGTAA was 0.0712.
In the case of TATACACA, the binding signal (normalized occupancy) was 0.0878.
Take CGGTATGA: the binding signal (normalized occupancy) was 0.0797.
With CATCATCC, the binding signal (normalized occupancy) was determined as 0.0857.
As for TACTAGGA, the binding signal (normalized occupancy) was determined as 0.0746.
The value for ACGGGGAA was 0.0731; that for CTGTAAGC was 0.0743.
The value for CGCAGACG was 0.0715; that for CTCTTTGC was 0.0727.
The value for AAAGCCGA was 0.0686; that for AGTTACCG was 0.0727; that for CGACTCTA was 0.0706.
Consider ATTTTATG, for which the binding signal (normalized occupancy) came out at 0.0765.
To GGGATTAC belongs 0.0757; to GAGCGCCC, 0.0681; to ATTAGGCA, 0.0745.
The value for CTATTTTA was 0.076; that for CAGCTAGG was 0.0679.
To GTTCTTTA belongs 0.0744; to TGAATGCA, 0.0803; to AACCGGTT, 0.0671.
For GCCTGCTA, the binding signal (normalized occupancy) came out at 0.0731.
To GTCATTAA belongs 0.0778; to GCGTCATA, 0.0757.
The value for AGGCCTAA was 0.0731.
To CACTGTGC belongs 0.0763; to AAGTGCCC, 0.0681.
Consider ACGGTGGA, for which the binding signal (normalized occupancy) turned out to be 0.0765.
To TGTTACAA belongs 0.0777.
ACCGATCC: the binding signal (normalized occupancy) turned out to be 0.0719.
Take ACTTCTGC: the binding signal (normalized occupancy) amounted to 0.0739.
On to AAATGAAT, for which the binding signal (normalized occupancy) was found to be 0.0799.
For CTTGCCTC, the binding signal (normalized occupancy) turned out to be 0.0729.
To AGCGTGAG belongs 0.091; to GCTCTGCC, 0.068; to TAGTTCAA, 0.0704.
To TCGGATAA belongs 0.0744; to TATCTGAA, 0.0761.
To CCACTACG belongs 0.0744; to GCACCCTA, 0.0771.
In the case of GAGATGAC, the binding signal (normalized occupancy) came to 0.0732.
As to AGAGAATA, the binding signal (normalized occupancy) was determined as 0.0764.
To ACACGTCT belongs 0.0781.
The value for CGACCTAC was 0.0709; that for ATGGACAA was 0.0766; that for ACCTGACT was 0.0799.
To ATCTTTTG belongs 0.0753.
As for CCTAGTCA, the binding signal (normalized occupancy) stood at 0.077.
AAAGACCC: the binding signal (normalized occupancy) was 0.0703.
For the sequence GATGCGCC, the binding signal (normalized occupancy) is 0.0717.
To ATTCGTCA belongs 0.0752.
The value for CTGTCAAA was 0.0735; that for AAACCCGG was 0.0665.
Turning to ACCACATC, the binding signal (normalized occupancy) is 0.0807.
To ACTCTCCT belongs 0.0789; to CGCCCTAG, 0.0675; to ATGGCGAA, 0.0789.
To ATAGAATC belongs 0.0826.
As to TATTTAGA, the binding signal (normalized occupancy) was 0.0735.
The value for CCCAGCTA was 0.0687.
In the case of ATGTAGAG, the binding signal (normalized occupancy) stood at 0.078.
As for GATATTTA, the binding signal (normalized occupancy) turned out to be 0.0766.
Consider ACGTCATC, for which the binding signal (normalized occupancy) worked out at 0.0802.
To CACAAATA belongs 0.0727; to AGTAAAAA, 0.0773.
To CGTGGTAC belongs 0.0934.
The value for GCACATCC was 0.0791.
With ATGTCATG, the binding signal (normalized occupancy) stood at 0.0866.
The value for AAATGCAT was 0.079; that for GAACTAGA was 0.069.
To CGACTGCA belongs 0.0704; to CTCCTTGA, 0.0735; to GTCTCGTA, 0.0768.
As to CGTGCACA, the binding signal (normalized occupancy) was 0.0958.
For the sequence GCCAAGCC, the binding signal (normalized occupancy) is 0.0753.
To ACCAGTTC belongs 0.0667.
To AGGTCTGA belongs 0.0732; to AGGTGTAC, 0.0803.
The value for ATCTCCTA was 0.0754.
On to AACATCGG, for which the binding signal (normalized occupancy) worked out at 0.0691.
To CTTTTCTA belongs 0.0766; to GCACTCAA, 0.0759.
To CATTCTTA belongs 0.0756; to AGGGGACT, 0.0713.
Consider AAGGCGAT, for which the binding signal (normalized occupancy) was determined as 0.0724.
The value for AGCGGGAC was 0.0637; that for ATGGCAGG was 0.0815.
With CTAGTGAC, the binding signal (normalized occupancy) was found to be 0.0735.
To GACCGTAC belongs 0.0783; to AGACGGCC, 0.0683; to GCAATAAA, 0.0711.
To AATCCAAT belongs 0.0779; to GTCTGAAA, 0.0699.
The value for GGCACCAC was 0.0771; that for ACGACGGC was 0.0726.
For the sequence ACCTCAGT, the binding signal (normalized occupancy) turned out to be 0.0682.
With ACGGATTA, the binding signal (normalized occupancy) worked out at 0.0759.
The value for CATTCGAC was 0.0729; that for ACATGTTC was 0.0965.
For TCTTTTAA, the binding signal (normalized occupancy) amounted to 0.069.
The value for CACCACAG was 0.0703; that for AAAACTCT was 0.0689.
